From patent publication US20220064291A1, “METHODS OF USING BUTYROPHILIN ANTIBODIES FOR TREATING HIV INFECTION” (Merck Sharp & Dohme Corp., priority 2018, published 2022)

B1: 1F (antibody, V domains shown)
VH: QVQLQESGPGLVKPSQTLSLTCTVSGGSISSGGYYWSWIRQHPGKGLEWIGSIYYSGSTYYNPSLKSRVTISVDTSKNQFSLKLSSVTAADTAVYYCARLHSSQSSSTYWGQGTLVTVSS
VL: [left out - about 100 residues]YTFGGGTKVEIK
B2: 2L (antibody, V domains shown)
VH: [left out - about 100 residues]PPEVVGYGEDWFDPWGQGTLVTVSS
VL: DIQMTQSPSSVSASVGDRVTITCRASQGISSWLAWYQQKPGKAPKLLIYAASNLQSGVPSRFSGSGSGTDFTLTISSLQPEDFATYYCQQGNDLPITFGGGTKVEIK

What was measured:
BTN3A1 = target: T1, BTN3A1 (Homo sapiens, UniProt O00481); assay: BTN isoform binding of yeast display antibodies (Octet isoform binding profile, binding affinity); settings: Table 4; Yes/No; hIgG1-297A isotype
T1 construct: Fc (Fc-chimera); purchased R&D systems; host or cells: HEK293
T1 sequence (O00481 with tags, fused parts or gaps limits assumed): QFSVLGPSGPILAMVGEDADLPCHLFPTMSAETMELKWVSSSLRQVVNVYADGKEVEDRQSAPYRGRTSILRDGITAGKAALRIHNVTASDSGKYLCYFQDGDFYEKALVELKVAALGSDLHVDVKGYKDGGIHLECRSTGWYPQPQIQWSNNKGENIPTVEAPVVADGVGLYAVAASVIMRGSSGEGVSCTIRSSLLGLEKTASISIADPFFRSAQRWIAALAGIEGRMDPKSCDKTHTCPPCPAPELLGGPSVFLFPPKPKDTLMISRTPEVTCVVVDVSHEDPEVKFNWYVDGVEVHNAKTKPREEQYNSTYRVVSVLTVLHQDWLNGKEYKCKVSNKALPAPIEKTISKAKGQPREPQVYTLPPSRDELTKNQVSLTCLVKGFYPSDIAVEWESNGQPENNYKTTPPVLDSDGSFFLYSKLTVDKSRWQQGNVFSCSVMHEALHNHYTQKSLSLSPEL
Method: (§1) De novo antibody discovery for butyrophilin isoforms was executed on pre-immune yeast display libraries. The soluble proteins used in the yeast display selections were biotinylated recombinant proteins of HEK293-expressed Fc-chimeras BTN2A2, BTN3A1, BTN3A2, and BTN3A3 from R&D systems. All proteins were analyzed before use by Biacore binding against control antibody anti-BTN Monoclonal Antibody (eBioBT3.1 (20.1, BT3.1), SEC, SDS-PAGE, and endotoxin.
(§2) Each biotinylated BTN isoform was subjected to pre-immune yeast display libraries for selections. The selections started with MACS (Magnetic Bead-based Cell Separation) cell separations for the first two rounds to enrich clones that bind to the targeted BTN isoforms, and applied fluorescence activated cell sorting (FACS) at later rounds to isolate clones that were with high affinity and isoform specificity. Due to the high sequence homology among all BTN isoforms, isoform-specific selection pressures were achieved by introducing ten-fold molar ratio of the non-biotinylated BTN isoforms to the biotinylated and selection-targeted BTN isoforms in the later rounds of the selections.
(§3) The isolated clones were then sequenced to identify the unique antibodies and screened for isoform binding profiles by Octet. To ensure the isolated antibodies have broad-epitopic coverage, all the antibodies were subjected to binning against the benchmark antibodies: BTN20.1 (Biolegend, agonist) and BTN103.2 (Creative Biolabs, antagonist). Purified antibodies were submitted for functional assay screening, as described below.
(§4) Given the sequence homology between BTN3A isoforms (>90%), this outcome is expected. Within all 105 antibodies from the BTN3A1 campaign and 125 antibodies from the BTN3A2 campaign, each antibody was characterized into one of the bins: Biolegend-bin, Creative-Biolabs-bin, Empty Set, or Overlapping.
(§5) Using the protocols described in detail in Example 2B and Example 3A, anti-BTN3A antibodies were screened for a functional role in T cell activation and reactivation of latent HIV. Antibody screens were conducted using HIV latent CD4+ T cells (prepared as described in Example 1A). T cell activation was quantified by production of IFNγ, and reactivation of latent HIV was quantified by luciferase assay. […] Detailed information on binding profile with binding affinity (KD) (Table 4) and antibody isotype and sequence (Table 5) are provided for two representative antibodies from each of the three functional categories observed.

BTN3A2 = target: T2, BTN3A2 (Homo sapiens, UniProt P78410); assay: as above; settings: Table 4; Yes/No; hIgG1-297A isotype
T2 construct: Fc (Fc-chimera); purchased R&D systems; host or cells: HEK293
T2 sequence (P78410 with tags, fused parts or gaps limits assumed): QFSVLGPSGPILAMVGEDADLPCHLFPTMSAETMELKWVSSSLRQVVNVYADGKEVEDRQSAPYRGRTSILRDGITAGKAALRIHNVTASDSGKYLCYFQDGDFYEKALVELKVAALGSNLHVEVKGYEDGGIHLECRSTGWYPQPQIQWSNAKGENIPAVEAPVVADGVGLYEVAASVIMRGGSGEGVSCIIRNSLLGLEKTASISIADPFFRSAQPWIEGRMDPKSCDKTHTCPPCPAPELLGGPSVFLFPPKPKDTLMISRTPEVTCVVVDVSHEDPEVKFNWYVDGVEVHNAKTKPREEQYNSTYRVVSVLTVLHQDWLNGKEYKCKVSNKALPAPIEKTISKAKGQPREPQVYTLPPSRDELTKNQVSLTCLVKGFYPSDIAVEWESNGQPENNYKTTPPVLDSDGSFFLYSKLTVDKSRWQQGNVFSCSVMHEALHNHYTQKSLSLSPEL
Method: as §1, §2, §3, §4, §5

BTN3A3 = target: T3, BTN3A3 (Homo sapiens, UniProt O00478); assay: as above; settings: Table 4; Yes/No; hIgG1-297A isotype
T3 construct: Fc (Fc-chimera); purchased R&D systems; host or cells: HEK293
T3 sequence (O00478 with tags, fused parts or gaps limits assumed): as the sequence (P78410 with tags, fused parts or gaps limits assumed) above, with K37R, N120D, V123I, Q149K, N152D, A153T, E174A, G184S, E187G counted along it
Method: as §1, §2, §3, §4, §5

[1] = system: HIV latent primary CD4+ T cells; assay: T cell activation by plate-coated anti-BTN3A antibody plus anti-CD3, IFNγ expression (V-PLEX); format: cell-based, human; settings: production of IFNγ, with anti-CD3, Yes/No
Method: (§6) Latent HIV-1 infected primary CD4+ T cells were generated following a protocol licensed from the laboratory of Jonathan Karn (Case Western Reserve University, Cleveland, Ohio). Briefly, naive CD4^+ T cells isolated from 2 healthy human donors were propagated for 6 days in growth medium supplemented with Dynabeads Human T-Activator CD3/CD28 (25 μl/10^6 cells) and Th17 polarizing cytokines: TGF-β1 (5 ng/ml), IL-4 (10 ng/ml), IFNγ (10 ng/ml), IL-1β (10 ng/ml), IL-6 (30 ng/ml), IL-23 (50 ng/ml), IL-8 (15 ng/ml), IL-10 (10 ng/ml). […]. Reactivation of HIV-1 proviruses from latently infected cells was performed by treatment with Dynabeads Human T-Activator CD3/CD28 (25 μl/10^6 cells) or PMA/Ionomycin.
We next addressed if treatment with anti-BTN3A antibodies reverses BTN3A-mediated blockade in T cell activation. […] At 72 h following treatment T cell activation was measured based on IFNγ expression using a V-PLEX proinflammatory panel 1 human assay (Meso Scale Discovery, Rockville, Md.) (FIG. 4).
(§7) Using the protocols described in detail in Example 2B and Example 3A, anti-BTN3A antibodies were screened for a functional role in T cell activation and reactivation of latent HIV. […] T cell activation was quantified by production of IFNγ, and reactivation of latent HIV was quantified by luciferase assay. […]

[2] = system: latent HIV in HIV latent primary CD4+ T cells; assay: Latent virus reactivation by plate-coated anti-BTN3A antibody plus anti-CD3, Nano-Glo Luciferase Assay; format: cell-based, HIV-1; settings: with anti-CD3, Yes/No
Method: as §6, with “Reactivation of HIV-1 proviruses from latently infected cells was performed by treatment with Dynabeads Human T-Activator CD3/CD28 (25 μl/10^6 cells) or PMA/Ionomycin.” left out
To assess if BTN3A modulation has impact on HIV latency reversal, sterile 96-well flat bottom tissue culture plates (Corning) were coated with various concentrations of anti-CD3 and anti-BTN3 20.1 antibodies (10 μg/ml, 3 μg/ml, 1 μg/ml, and 0.3 μg/ml) in PBS for 16h in a 4° C. refrigerator. […] At 24 h post treatment latent virus reactivation was measured using a Nano-Glo® Luciferase Assay (Promega) (FIG. 5).
as §7

Molecule | BTN3A1 Binding (BTN3A1) | BTN3A2 Binding (BTN3A2) | BTN3A3 Binding (BTN3A3) | Antibody function T cell activation [1] | Antibody function HIV reactivation [2]
B1 | Yes | No | No | Yes | No
B2 | Yes | No | No | No | Yes
